Part of at least one peptide drawing is inferred or uncertain, most often the ends. Starred links: 1 amine or outer side, 2 acyl side, 3 side chain; linkers in the order of their positions; H or OH if unused. Non-standard residues stand in square brackets, D forms with d. Residues, ends and D or L forms follow the SMILES beside them. X3 = O=C([C@@H](Cc1ccc(CN2CCOCC2)cc1)N[*:1])[*:2]; X4 = O=C([C@H](Cc1ccc(CN2CCOCC2)cc1)N[*:1])[*:2]; X9 = O=C([C@@H](Cc1ccc(CN2CCCC2)cc1)N[*:1])[*:2]; X5 = O=C([C@H](Cc1ccc(CN2CCCC2)cc1)N[*:1])[*:2]; X7 = CCN(CC)Cc1ccc(C[C@H](N[*:1])C(=O)[*:2])cc1; X6 = CN(C)Cc1ccc(C[C@@H](N[*:1])C(=O)[*:2])cc1; X1 = CN(C)Cc1ccc(C[C@H](N[*:1])C(=O)[*:2])cc1; dPhe(4-Cl) = N[C@H](Cc1ccc(Cl)cc1)C(=O)O; d2Nal = N[C@H](Cc1ccc2ccccc2c1)C(=O)O; d3Pal = N[C@H](Cc1cccnc1)C(=O)O
Assays:
mast cells = type: cell-based; conditions: in vitro histamine release, rat peritoneal mast cells
Method: The healthy, adult, male SD rats (BW 200-250 g) used in this experiment were housed in the same conditions as for the adult, female SD rats above. After anesthetizing with CO2, the peritoneal cavity was washed with 50 ml of PIPES AC medium containing 20 units of heparin. Following centrifugation at 200×g for 8 min. at 4° C., the cells were washed again and resuspended to a concentration of 8-to-24×10^5 total leukocytes/ml in […]. This suspension contained approximately 5-10% mast cells. Washed cells were used immediately after collection and were prewarmed for 5 min. at 37° C. prior to pipetting 0.3 ml aliquots into polystyrene tubes containing 0.3 ml of diluted peptide. The mixtures were incubated for 15 min. at 37° C., and the reaction was stopped by centrifugation at 400×g for 15 min. at 4° C. The supernatants were assayed for histamine content by manual fluorometric assay method after successful extraction with n-butanol and n-heptane. The histamine content can be obtained from the histamine standard curve (see below). The percentage of histamine release can be calculated from the following equation: [formula] where E is the fluorometric reading of the experimental sample, B is the fluorometric reading of samples with cells and buffer only, and C is the fluorometric reading of "complete" samples (cells treated with HCIO4). The standard curve can be obtained by plotting the OD values on a fluorometer at 350 nm/450 nm (activation/fluorescent) against the concentrations of serially diluted solutions of accurately weighed histamine hydrochloride. The relative parameter (r) of the histamine standard curve can be 0.9998, and the lowest detectable concentration of histamine is 0.5 ng/ml. The ED50 value of a peptide can be determined from the dose response curves obtained by plotting the histamine release versus the peptide concentration on semilogarithmic paper. All peptide samples should be tested with mast cells from a minimum of 3 different rats.

rat ovulation = experiment: Corbin's rat antiovulation method (antiovulatory activity, AOA); type: in vivo; conditions: for % AOA/μg 0.5: 0.5 μg; for % AOA/μg 1.0: 1.0 μg
Method: Corbin's rat antiovulation method was used in the present invention. Healthy, adult, female SD rats (BW 200-250 g) were used in this experiment. All animals were maintained at 22°-24° C. and on a 14 hr./10 hr. (light/dark) schedule. They were given standard food and water ad libitum. Only those rats showing at least two consecutive 4-day estrous cycles in vaginal smear examination could be used in this experiment. The rats were given peptides (LHRH antagonists) at noon of proestrus with different doses in saline solution. The rats were sacrificed the next day, and both portions of their oviducts were examined using a dissecting microscope in order to determine the ovum number. The rats were divided into several groups according to the dosing, and each group consisted of about 10 rats. The control group, which was given an equivalent amount of saline, consisted of 9-10 rats. […] Evaluation of Histamine Releasing Activity

[1] = in saline, at noon of proestrus, female SD rats

Compound	HRA (μg/ml) ED50 ± SEM (mast cells) [µg/mL]	% AOA/μg 0.5 (rat ovulation; [1]) [%]	% AOA/μg 1.0 (rat ovulation; [1]) [%]	AOA (rat ovulation; 0.125 μg in corn oil) [%]	AOA (rat ovulation; 0.25 μg in corn oil) [%]	% AOA/μg 0.25 (rat ovulation; 0.25 μg, in saline, at noon of proestrus, female SD rats) [%]	AOA (rat ovulation; 0.5 μg in corn oil) [%]	ED50 for AOA (rat ovulation; from the corn oil results) [µg]
CC(=O)N[C@H](Cc1ccc2ccccc2c1)C(=O)N[C@H](Cc1ccc(Cl)cc1)C(=O)N[C@H](Cc1cccnc1)C(=O)N[C@@H](CO)C(=O)N[C@@H](CCCNC(=N)N)C(=O)N[C@H](Cc1ccc(CN(C)C)cc1)C(=O)N[C@@H](CC(C)C)C(=O)N[C@@H](CCCNC(=N)N)C(=O)N1CCC[C@H]1C(=O)N[C@H](C)C(N)=O [Compound 14] (Ac-[d2Nal][dPhe(4-Cl)][d3Pal]SR[X6]LRP[dA]-NH2)	19.5	14						
CC(=O)N[C@H](Cc1ccc2ccccc2c1)C(=O)N[C@H](Cc1ccc(Cl)cc1)C(=O)N[C@H](Cc1cccnc1)C(=O)N[C@@H](CO)C(=O)N[C@@H](CCCNC(=N)N)C(=O)N[C@H](Cc1ccc(CN2CCCC2)cc1)C(=O)N[C@@H](CC(C)C)C(=O)N[C@@H](CCCNC(=N)N)C(=O)N1CCC[C@H]1C(=O)N[C@H](C)C(N)=O [Compound 16] (Ac-[d2Nal][dPhe(4-Cl)][d3Pal]SR[X9]LRP[dA]-NH2)	22.5	71						
CC(=O)N[C@H](Cc1ccc2ccccc2c1)C(=O)N[C@H](Cc1ccc(Cl)cc1)C(=O)N[C@H](Cc1cccnc1)C(=O)N[C@@H](CO)C(=O)N[C@@H](CCCNC(=N)N)C(=O)N[C@H](Cc1ccc(CN2CCOCC2)cc1)C(=O)N[C@@H](CC(C)C)C(=O)N[C@@H](CCCNC(=N)N)C(=O)N1CCC[C@H]1C(=O)N[C@H](C)C(N)=O [Compound 18] (Ac-[d2Nal][dPhe(4-Cl)][d3Pal]SR[X3]LRP[dA]-NH2)	> 11	67	100					
CC(=O)N[C@H](Cc1ccc2ccccc2c1)C(=O)N[C@H](Cc1ccc(Cl)cc1)C(=O)N[C@H](Cc1cccnc1)C(=O)N[C@@H](CO)C(=O)N[C@@H](CCCNC(=N)N)C(=O)N[C@H](Cc1cccnc1)C(=O)N[C@@H](CC(C)C)C(=O)N[C@@H](Cc1ccc(CN(C)C)cc1)C(=O)N1CCC[C@H]1C(=O)N[C@H](C)C(N)=O [Compound 19] (Ac-[d2Nal][dPhe(4-Cl)][d3Pal]SR[d3Pal]L[X1]P[dA]-NH2)	5.4	57	100					
CCN(CC)Cc1ccc(C[C@H](NC(=O)[C@H](CC(C)C)NC(=O)[C@@H](Cc2cccnc2)NC(=O)[C@H](CCCNC(=N)N)NC(=O)[C@H](CO)NC(=O)[C@@H](Cc2cccnc2)NC(=O)[C@@H](Cc2ccc(Cl)cc2)NC(=O)[C@@H](Cc2ccc3ccccc3c2)NC(C)=O)C(=O)N2CCC[C@H]2C(=O)N[C@H](C)C(N)=O)cc1 [Compound 20] (Ac-[d2Nal][dPhe(4-Cl)][d3Pal]SR[d3Pal]L[X7]P[dA]-NH2)	56.9		29					
CC(=O)N[C@H](Cc1ccc2ccccc2c1)C(=O)N[C@H](Cc1ccc(Cl)cc1)C(=O)N[C@H](Cc1cccnc1)C(=O)N[C@@H](CO)C(=O)N[C@@H](CCCNC(=N)N)C(=O)N[C@H](Cc1cccnc1)C(=O)N[C@@H](CC(C)C)C(=O)N[C@@H](Cc1ccc(CN2CCCC2)cc1)C(=O)N1CCC[C@H]1C(=O)N[C@H](C)C(N)=O [Compound 23] (Ac-[d2Nal][dPhe(4-Cl)][d3Pal]SR[d3Pal]L[X5]P[dA]-NH2)	6.6	25	100					
CC(=O)N[C@H](Cc1ccc2ccccc2c1)C(=O)N[C@H](Cc1ccc(Cl)cc1)C(=O)N[C@H](Cc1cccnc1)C(=O)N[C@@H](CO)C(=O)N[C@@H](CCCNC(=N)N)C(=O)N[C@H](Cc1cccnc1)C(=O)N[C@@H](CC(C)C)C(=O)N[C@@H](Cc1ccc(CN2CCOCC2)cc1)C(=O)N1CCC[C@H]1C(=O)N[C@H](C)C(N)=O [Compound 25] (Ac-[d2Nal][dPhe(4-Cl)][d3Pal]SR[d3Pal]L[X4]P[dA]-NH2)	52.5		71					
CC(=O)N[C@H](Cc1ccc2ccccc2c1)C(=O)N[C@H](Cc1ccc(Cl)cc1)C(=O)N[C@H](Cc1cccnc1)C(=O)N[C@@H](CO)C(=O)N[C@@H](CCCNC(=N)N)C(=O)N[C@H](Cc1cccnc1)C(=O)N[C@@H](CC(C)C)C(=O)N[C@H](Cc1ccc(CN(C)C)cc1)C(=O)N1CCC[C@H]1C(=O)N[C@H](C)C(N)=O [Compound 26] (Ac-[d2Nal][dPhe(4-Cl)][d3Pal]SR[d3Pal]L[X6]P[dA]-NH2)	28.0		0					
CC(=O)N[C@H](Cc1ccc2ccccc2c1)C(=O)N[C@H](Cc1ccc(Cl)cc1)C(=O)N[C@H](Cc1cccnc1)C(=O)N[C@@H](CO)C(=O)N[C@@H](CCCNC(=N)N)C(=O)N[C@H](Cc1cccnc1)C(=O)N[C@@H](CC(C)C)C(=O)N[C@@H](CCCNC(=N)N)C(=O)N1CCC[C@H]1C(=O)N[C@H](C)C(N)=O [IV, NAc-D2Nal^1 -DpClPhe^2 -D3Pal^3 -Ser^4 -Arg^5 -D3Pal^6 -Leu^7 -Arg^8 -Pro^9 -DAla^10 -NH2] (Ac-[d2Nal][dPhe(4-Cl)][d3Pal]SR[d3Pal]LRP[dA]-NH2)	3.5	75	100	50	85	50	100	≤ 0.125
CC(=O)N[C@H](Cc1ccc2ccccc2c1)C(=O)N[C@H](Cc1ccc(Cl)cc1)C(=O)N[C@H](Cc1cccnc1)C(=O)N[C@@H](CO)C(=O)N[C@@H](Cc1ccc(CN2CCOCC2)cc1)C(=O)N[C@H](Cc1cccnc1)C(=O)N[C@@H](CC(C)C)C(=O)N[C@@H](CCCNC(=N)N)C(=O)N1CCC[C@H]1C(=O)N[C@H](C)C(N)=O [VII, NAc-D2Nal^1 -DpClPhe^2 -D3Pal^3 -Ser^4 -Mop^5 -D3Pal^6 -Leu^7 -Arg^8 -Pro^9 -DAla^10 -Nh2] (Ac-[d2Nal][dPhe(4-Cl)][d3Pal]S[X4][d3Pal]LRP[dA]-NH2)	14.7	25	100					
